This is one part of the list.
Assays:
Assay in all cases: glycan array binding signal (z-score within array); higher = stronger binding
Details in all cases: glycan notation: IUPAC condensed, linker removed
[1] = target: Fuc(a1-3)[GalNAc(b1-4)]GlcNAc
Summary of the method: (§1)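 Negative Z-scores can be read as non-binding. The Z-score is calculated within each array and then averaged across arrays of one protein sequence at different concentrations or buffers and across linkers. Arrays, 3228 in all, were curated from the Consortium for Functional Glycomics database and kept only where the protein sequence was available.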

Fuc(a1-4)GlcNAc = target: Fuc(a1-4)GlcNAc
Summary of the method: as §1

Fuc(b1-3)GlcNAc = target: Fuc(b1-3)GlcNAc
Summary of the method: as §1

Gal(a1-2)Gal = target: Gal(a1-2)Gal
Summary of the method: as §1

Gal(a1-3)Gal = target: Gal(a1-3)Gal
Summary of the method: as §1

Gal(a1-3)Gal(b1-3)GlcNAc = target: Gal(a1-3)Gal(b1-3)GlcNAc
Summary of the method: as §1

Gal(a1-3)Gal(b1-4)Glc = target: Gal(a1-3)Gal(b1-4)Glc
Summary of the method: as §1

Gal(a1-3)Gal(b1-4)GlcNAc = target: Gal(a1-3)Gal(b1-4)GlcNAc
Summary of the method: as §1

[2] = target: Gal(a1-3)Gal(b1-4)[Fuc(a1-3)]GlcNAc
Summary of the method: as §1

Gal(a1-3)GalNAc = target: Gal(a1-3)GalNAc
Summary of the method: as §1

[3] = target: Gal(a1-3)[Gal(a1-4)]Gal(b1-4)GlcNAc
Summary of the method: as §1

Gal(a1-4)Gal(b1-4)Glc = target: Gal(a1-4)Gal(b1-4)Glc
Summary of the method: as §1

Gal(a1-4)Gal(b1-4)GlcNAc = target: Gal(a1-4)Gal(b1-4)GlcNAc
Summary of the method: as §1

Gal(a1-4)GlcNAc = target: Gal(a1-4)GlcNAc
Summary of the method: as §1

Gal(a1-6)Glc = target: Gal(a1-6)Glc
Summary of the method: as §1

Gal(b1-2)Gal = target: Gal(b1-2)Gal
Summary of the method: as §1

Gal(b1-3)Gal = target: Gal(b1-3)Gal
Summary of the method: as §1

Gal(b1-3)Gal(b1-4)GlcNAc = target: Gal(b1-3)Gal(b1-4)GlcNAc
Summary of the method: as §1

Gal(b1-3)GalNAc = target: Gal(b1-3)GalNAc
Summary of the method: as §1

[4] = target: Gal(b1-3)GalNAc(b1-3)Gal(a1-4)Gal(b1-4)Glc
Summary of the method: as §1

[5] = target: Gal(b1-3)GalNAc(b1-4)Gal(b1-4)Glc
Summary of the method: as §1

[6] = target: Gal(b1-3)GalNAc(b1-4)[Neu5Ac(a2-3)]Gal(b1-4)Glc
Summary of the method: as §1

Gal(b1-3)GlcNAc = target: Gal(b1-3)GlcNAc
Summary of the method: as §1

[7] = target: Gal(b1-3)GlcNAc(b1-2)Man(a1-3)[Gal(b1-3)GlcNAc(b1-2)Man(a1-6)]Man(b1-4)GlcNAc(b1-4)GlcNAc
Summary of the method: as §1

[8] = target: Gal(b1-3)GlcNAc(b1-3)Gal(b1-3)GlcNAc
Summary of the method: as §1

[9] = target: Gal(b1-3)GlcNAc(b1-3)Gal(b1-4)Glc
Summary of the method: as §1

[10] = target: Gal(b1-3)GlcNAc(b1-3)Gal(b1-4)GlcNAc
Summary of the method: as §1

[11] = target: Gal(b1-3)[Fuc(a1-4)]GlcNAc
Summary of the method: as §1

[12] = target: Gal(b1-3)[Fuc(a1-4)]GlcNAc(b1-3)Gal(b1-3)[Fuc(a1-4)]GlcNAc
Summary of the method: as §1

[13] = target: Gal(b1-3)[Fuc(a1-4)]GlcNAc(b1-3)Gal(b1-4)GlcNAc
Summary of the method: as §1

[14] = target: Gal(b1-3)[Fuc(a1-4)]GlcNAc(b1-3)Gal(b1-4)[Fuc(a1-3)]GlcNAc
Summary of the method: as §1

[15] = target: Gal(b1-3)[GlcNAc(b1-6)]GalNAc
Summary of the method: as §1

[16] = target: Gal(b1-3)[Neu5Ac(a2-6)]GalNAc
Summary of the method: as §1

[17] = target: Gal(b1-3)[Neu5Ac(a2-6)]GlcNAc(b1-6)Gal(b1-4)Glc
Summary of the method: as §1

[18] = target: Gal(b1-3)[Neu5Ac(b2-6)]GalNAc
Summary of the method: as §1

[19] = target: Gal(b1-4)GalNAc(a1-3)[Fuc(a1-2)]Gal(b1-4)GlcNAc
Summary of the method: as §1

[20] = target: Gal(b1-4)GalNAc(b1-3)[Fuc(a1-2)]Gal(b1-4)GlcNAc
Summary of the method: as §1

Gal(b1-4)Glc = target: Gal(b1-4)Glc
Summary of the method: as §1

Gal(b1-4)Glc6S = target: Gal(b1-4)Glc6S
Summary of the method: as §1

Gal(b1-4)GlcNAc = target: Gal(b1-4)GlcNAc
Summary of the method: as §1

[21] = target: Gal(b1-4)GlcNAc(a1-6)Gal(b1-4)GlcNAc
Summary of the method: as §1

[22] = target: Gal(b1-4)GlcNAc(b1-2)Man(a1-3)[Gal(b1-4)GlcNAc(b1-2)Man(a1-6)]Man(b1-4)GlcNAc(b1-4)GlcNAc
Summary of the method: as §1

[23] = target: Gal(b1-4)GlcNAc(b1-3)Gal(b1-3)GlcNAc
Summary of the method: as §1

[24] = target: Gal(b1-4)GlcNAc(b1-3)Gal(b1-4)Glc
Summary of the method: as §1

[25] = target: Gal(b1-4)GlcNAc(b1-3)Gal(b1-4)GlcNAc
Summary of the method: as §1

B1: Surfactant Protein D (Human); Neck + Carbohydrate Recognition Domain (NCRD) (Homo sapiens) (protein)
chain: MLLFLLSALVLLTQPLGYLEAEMKTYSHRTMPSACTLVMCSSVESGLPGRDRDGREGPRGEKGDPGLPGAAGQAGMPGQAGPVGPKGDNGSVGEPGPKGDTGPSGPPGPPGVPGPAGREGALGKQGNIGPQGKPGPKGEAGPKGEVGAPGMQGSAGARGLAGPKGERGVPGERGVPGNTGAAGSAGAMGPQGSPGARGPPGLKGDKGIPGDKGAKGESGLPDVASLRQQVEALQGQVQHLQAAFSQYKKVELFPNGQSVGEKIFKTAQFVKPFTEAQLLCTQAGGQLASPRSAAENAALQQLVVAKNEAAFLSMTDSKTEGKFTYPTGESLVYSNWAPGEPNDDGGSEDCVEIFTNGKWNDRACGEKRLVVCEF
glycan array binding signal (z-score) [1]: -0.138 | glycan array binding signal (z-score) (Fuc(a1-4)GlcNAc): -0.052 | glycan array binding signal (z-score) (Fuc(b1-3)GlcNAc): -0.183 | glycan array binding signal (z-score) (Gal(a1-2)Gal): -0.19 | glycan array binding signal (z-score) (Gal(a1-3)Gal): -0.227 | glycan array binding signal (z-score) (Gal(a1-3)Gal(b1-3)GlcNAc): -0.269 | glycan array binding signal (z-score) (Gal(a1-3)Gal(b1-4)Glc): -0.229 | glycan array binding signal (z-score) (Gal(a1-3)Gal(b1-4)GlcNAc): -0.263 | glycan array binding signal (z-score) [2]: -0.206 | glycan array binding signal (z-score) (Gal(a1-3)GalNAc): -0.186 | glycan array binding signal (z-score) [3]: -0.269 | glycan array binding signal (z-score) (Gal(a1-4)Gal(b1-4)Glc): -0.004 | glycan array binding signal (z-score) (Gal(a1-4)Gal(b1-4)GlcNAc): -0.228 | glycan array binding signal (z-score) (Gal(a1-4)GlcNAc): -0.21 | glycan array binding signal (z-score) (Gal(a1-6)Glc): -0.083 | glycan array binding signal (z-score) (Gal(b1-2)Gal): -0.174 | glycan array binding signal (z-score) (Gal(b1-3)Gal): -0.25 | glycan array binding signal (z-score) (Gal(b1-3)Gal(b1-4)GlcNAc): -0.274 | glycan array binding signal (z-score) (Gal(b1-3)GalNAc): -0.258 | glycan array binding signal (z-score) [4]: -0.132 | glycan array binding signal (z-score) [5]: -0.244 | glycan array binding signal (z-score) [6]: -0.27 | glycan array binding signal (z-score) (Gal(b1-3)GlcNAc): -0.263 | glycan array binding signal (z-score) [7]: -0.275 | glycan array binding signal (z-score) [8]: -0.234 | glycan array binding signal (z-score) [9]: -0.271 | glycan array binding signal (z-score) [10]: -0.239 | glycan array binding signal (z-score) [11]: -0.233 | glycan array binding signal (z-score) [12]: -0.19 | glycan array binding signal (z-score) [13]: -0.257 | glycan array binding signal (z-score) [14]: -0.053 | glycan array binding signal (z-score) [15]: -0.262 | glycan array binding signal (z-score) [16]: -0.281 | glycan array binding signal (z-score) [17]: -0.262 | glycan array binding signal (z-score) [18]: -0.147 | glycan array binding signal (z-score) [19]: -0.188 | glycan array binding signal (z-score) [20]: -0.254 | glycan array binding signal (z-score) (Gal(b1-4)Glc): -0.24 | glycan array binding signal (z-score) (Gal(b1-4)Glc6S): -0.207 | glycan array binding signal (z-score) (Gal(b1-4)GlcNAc): -0.205 | glycan array binding signal (z-score) [21]: -0.267 | glycan array binding signal (z-score) [22]: -0.253 | glycan array binding signal (z-score) [23]: -0.076 | glycan array binding signal (z-score) [24]: -0.273 | glycan array binding signal (z-score) [25]: -0.276

— the supplement of paper PMC8728848
